# Whole data set: some 33,000 sequences, median “E-score (-0.5 to 0.5)” near -0.032, cut for the highest 2% near 0.36. This is one part of the list.
# Biological target: T1, Sko1 (UniProt Q02100)
# T1 sequence: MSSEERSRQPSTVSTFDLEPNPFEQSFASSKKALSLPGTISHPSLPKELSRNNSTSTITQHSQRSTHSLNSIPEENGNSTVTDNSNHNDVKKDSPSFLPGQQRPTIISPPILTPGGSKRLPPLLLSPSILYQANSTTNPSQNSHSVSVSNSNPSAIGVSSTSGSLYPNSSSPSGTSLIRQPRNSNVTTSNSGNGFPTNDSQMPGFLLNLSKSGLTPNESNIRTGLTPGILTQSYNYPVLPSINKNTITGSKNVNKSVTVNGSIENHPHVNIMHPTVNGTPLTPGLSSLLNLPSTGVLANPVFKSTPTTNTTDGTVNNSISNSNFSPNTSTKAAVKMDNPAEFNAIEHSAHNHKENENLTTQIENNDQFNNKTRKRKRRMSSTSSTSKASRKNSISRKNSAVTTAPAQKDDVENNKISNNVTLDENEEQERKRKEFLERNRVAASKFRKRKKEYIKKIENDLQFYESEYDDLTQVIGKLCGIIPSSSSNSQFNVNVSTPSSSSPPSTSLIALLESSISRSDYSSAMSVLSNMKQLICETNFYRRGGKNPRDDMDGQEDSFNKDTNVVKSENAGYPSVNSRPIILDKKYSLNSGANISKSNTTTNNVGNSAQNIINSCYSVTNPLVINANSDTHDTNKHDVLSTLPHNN
# Test: PBM E-score (8-mer binding enrichment) (E-score (-0.5 to 0.5)); higher = stronger / more preferred TF binding; most listed sequences are background and not binding sites
# Settings: protein concentration: 200 nM; construct: GST-full length
# In short: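 GST-tagged yeast TFs (full-length or DNA-binding domain) were made by PURExpress in vitro transcription/translation and applied at about 100-200 nM to universal all-10-mer Agilent arrays. The arrays were made double-stranded by primer extension, on fresh or once-stripped slides. Bound protein was detected with fluorescent anti-GST, and scans were normalised with masliner. Each ungapped eight-base word, pooled with its reverse complement, received an E-score (modified Wilcoxon-Mann-Whitney statistic) from the Universal PBM Analysis Suite.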
row,Sequence,PBM E-score
1,AACTGAGA,-0.0942
2,ATTCAAGG,-0.169
3,GGGCAACA,-0.101
4,CACAAGCA,-0.0467
5,ACCAGCGT,-0.0826
6,CCCAATCG,0.0285
7,AGCGTACA,0.0563
8,ATCATGGG,-0.172
9,AGAAGTTA,0.142
10,AGGCCCGG,-0.385
11,CCCCCGAG,-0.31
12,GGTAAGAC,-0.0543
13,CTCAAATA,0.0986
14,ACAAGGCC,-0.312
15,CTTATACA,-0.00768
16,AGCTGGAT,-0.123
17,CTGATTTA,0.0612
18,AAACTGGT,-0.168
19,CCTTGAAC,-0.131
20,GACACTGA,0.0601
21,ACCAATCC,-0.123
22,GAGTGTAC,0.0578
23,GTAGCACA,0.074
24,CACGTCCG,0.0824
25,AGAGTTTA,0.177

row,Sequence,PBM E-score
1,AGAGACAT,-0.106
2,AGTGACGA,0.419
3,CGGACGGA,-0.239
4,GGGGTTAA,-0.243
5,ATGTTCCG,-0.0811
6,AACCGGAT,-0.00689
7,ACAATTAG,0.0266
8,CCCGCACC,-0.201
9,GATCATCC,-0.196
10,CTCGCGCC,-0.288
11,AGCGACTA,-0.0851
12,ACATCCTA,0.174
13,CAAGGCTA,-0.0448
14,ACTCTTTA,-0.00867
15,GTGCGTGA,0.274
16,AATGCGTA,0.39
17,CCAGCGAC,-0.113
18,AAAAGACC,-0.0899
19,CATGCAAC,0.0918
20,AGTATAGG,-0.199
21,CTAATAAC,0.28
22,ATGCCGCC,-0.175
23,CTTGCATC,-0.136
24,CTTGCGAA,0.112
25,ATCGTCGG,-0.177

row,Sequence,PBM E-score
1,ACTCGTTC,0.087
2,ACTGCGTC,0.284
3,ACGGAAAT,0.226
4,GAACGCAA,0.18
5,AACAAAAA,0.168
6,AGGTTAGG,-0.106
7,ACCCAGGT,-0.355
8,GCGAGTCA,-0.0489
9,CGCAACTC,0.0789
10,TAGCACCA,0.0572
11,GTCGAATA,-0.0712
12,CATAATGG,0.0628
13,CACAGCGA,0.0659
14,CCGTTACC,-0.235
15,AGACGGAG,-0.264
16,ATACGCTA,0.117
17,GATATGAA,0.195
18,ATCTTAGA,0.0246
19,ATTATGTA,0.398
20,CACTAATG,0.0154
21,ACCAGTCT,-0.17
22,ACTCCCCC,-0.326
23,ACTTGAAC,0.106
24,GTGACGCA,0.457
25,AAGTATAC,0.175

row,Sequence,PBM E-score
1,ACGTCTGG,0.331
2,CGTCTCTC,-0.0438
3,ACCGGTTG,-0.079
4,ACTCTTCA,-0.00926
5,AACTCTTG,-0.0712
6,AACACGGC,-0.255
7,AGTCTGGG,-0.218
8,ATAAGGCC,-0.0706
9,AGCAATGC,0.0687
10,AGATGGGA,-0.238
11,AGTCGATA,-0.0315
12,AGACAGAT,0.0457
13,GCGACTCC,-0.224
14,TGTCATAA,0.325
15,ATTCCTAA,0.167
16,CTCTGCAA,-0.0293
17,AAACGAAG,0.00778
18,CGACGTTC,-0.0745
19,GATCAAAA,0.0898
20,GTGCGCCA,-0.0761
21,TGGCTAAA,-0.0287
22,GTAAAAAA,0.0568
23,ACTCCTCG,-0.0285
24,ACAGTGCG,0.0112
25,GAGCGATA,-0.0889

row,Sequence,PBM E-score
1,AAGAATAT,-0.0449
2,GCGCACAA,0.0465
3,CTAGTTGC,-0.0258
4,AGTCGTTA,0.0683
5,CGTCCCCC,-0.268
6,ACGGTGTA,0.00144
7,ATAATCGG,0.0781
8,GCGGAAAC,-0.261
9,CCTTGTTA,0.00091
10,ATACCATC,0.0763
11,ATCTGATG,-0.146
12,GTATCTAA,0.201
13,GAACATAC,0.2
14,ACAAAAAC,0.138
15,GGCAACAC,-0.0781
16,AGGCAGTA,-0.129
17,TAACGAAA,0.252
18,TCCGTACA,0.0313
19,GACTACAA,-0.0168
20,ACGAGCGA,0.108
21,CAGGAGGA,-0.283
22,GAATGGCA,-0.0995
23,ATCTCGAC,0.0145
24,CGCAGATA,-0.00801
25,AAATTTAC,0.286

row,Sequence,PBM E-score
1,GAAAAACC,0.00051
2,CTCGGTGC,-0.165
3,CGCACTGC,0.0583
4,AAGCGGGG,-0.2
5,CGTTTAAG,0.0295
6,ACGCAGGG,0.292
7,AACCATCG,0.126
8,AGCTCAGC,0.0708
9,GGTACCGA,-0.303
10,CACAGCTG,-0.125
11,CTCACGGC,-0.147
12,ATTGTACC,0.106
13,TACGCCGA,-0.0247
14,GGCACTTA,-0.197
15,AAATAGGG,-0.196
16,AGTCTTAG,-0.28
17,CAGTTAGG,0.0181
18,ACCTTGAG,0.0663
19,ACCAGGGT,-0.354
20,CAGAATGG,0.00443
21,GGGTAAAC,-0.107
22,GAACAGTA,0.0956
23,CCGGCCCC,-0.331
24,GTTATACA,0.22
25,AACTGTAC,0.0739

row,Sequence,PBM E-score
1,GTGAATCA,0.0223
2,AGCGAATA,0.107
3,CTGATGTA,0.255
4,TCAATGCA,0.131
5,AAATGTGT,0.127
6,AGACGTCT,0.271
7,AGTTCGAG,-0.0377
8,AAATTCAC,0.014
9,ATGATCCC,-0.111
10,CACCGAAG,-0.11
11,GATAAATA,0.129
12,GGCTAAAC,-0.142
13,TGGTTGAA,-0.0168
14,GGGCGCAA,-0.175
15,GGATTATA,-0.109
16,AACGTCAC,0.471
17,ATCATGCG,0.0801
18,ATCCTACA,-0.0771
19,CGCAAGGC,-0.0674
20,CGGAGCAC,-0.208
21,CGTAACAG,0.374
22,ACGGGGAG,-0.229

# Reference: the supplement of paper PMC3334620
